# From PubChem BioAssay AID504333 (National Center for Advancing Translational Sciences (NCATS), 2011)
# In all, about 360,000 compounds went through this assay and about 16,000 (4.4%) were called active. Inconclusive means that the source gave no clear call. Such entries were picked first, then a sample of the others. The call rests on the fitted dose curve; in most records, active means well fitted inhibition curve with a large enough effect; inconclusive means small, poorly fitted or top-dose-only effect; inactive means no such curve, though single readings can be large or run the other way. A potency beside an inconclusive call is a rough fit, not a confirmed value.
# Target: Bromodomain adjacent to zinc finger domain protein 2B (Homo sapiens) (UniProt Q9UIF8)
# Assay: qHTS Assay for Inhibitors of BAZ2B; further: nearly all actives have a fitted effect of over 60% in size
# Details: AlphaScreen BAZ2B-H3K14Ac peptide displacement; activity change, negative = inhibition: at 114 µM (top of the series) unless noted
# Method in brief: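 BAZ2B 50 nM plus b-H3(5-23)K14Ac 50 nM, PBS pH 7.4/0.01% Tween-20, 30 min RT; compound added (max 110 uM), 30 min RT; streptavidin donor/Ni-chelate acceptor beads 10 ug/mL final, 20 min dark; AlphaScreen read.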
# On the % scale 0 is the no-effect control and ±100 the full control effect; potency means the concentration at half of the fitted maximal effect; tags describe the fitted curve by direction and shape.
# Chain of UniProt Q9UIF8 (Q9UIF8 whole entry, looked up, the tested form may be a part): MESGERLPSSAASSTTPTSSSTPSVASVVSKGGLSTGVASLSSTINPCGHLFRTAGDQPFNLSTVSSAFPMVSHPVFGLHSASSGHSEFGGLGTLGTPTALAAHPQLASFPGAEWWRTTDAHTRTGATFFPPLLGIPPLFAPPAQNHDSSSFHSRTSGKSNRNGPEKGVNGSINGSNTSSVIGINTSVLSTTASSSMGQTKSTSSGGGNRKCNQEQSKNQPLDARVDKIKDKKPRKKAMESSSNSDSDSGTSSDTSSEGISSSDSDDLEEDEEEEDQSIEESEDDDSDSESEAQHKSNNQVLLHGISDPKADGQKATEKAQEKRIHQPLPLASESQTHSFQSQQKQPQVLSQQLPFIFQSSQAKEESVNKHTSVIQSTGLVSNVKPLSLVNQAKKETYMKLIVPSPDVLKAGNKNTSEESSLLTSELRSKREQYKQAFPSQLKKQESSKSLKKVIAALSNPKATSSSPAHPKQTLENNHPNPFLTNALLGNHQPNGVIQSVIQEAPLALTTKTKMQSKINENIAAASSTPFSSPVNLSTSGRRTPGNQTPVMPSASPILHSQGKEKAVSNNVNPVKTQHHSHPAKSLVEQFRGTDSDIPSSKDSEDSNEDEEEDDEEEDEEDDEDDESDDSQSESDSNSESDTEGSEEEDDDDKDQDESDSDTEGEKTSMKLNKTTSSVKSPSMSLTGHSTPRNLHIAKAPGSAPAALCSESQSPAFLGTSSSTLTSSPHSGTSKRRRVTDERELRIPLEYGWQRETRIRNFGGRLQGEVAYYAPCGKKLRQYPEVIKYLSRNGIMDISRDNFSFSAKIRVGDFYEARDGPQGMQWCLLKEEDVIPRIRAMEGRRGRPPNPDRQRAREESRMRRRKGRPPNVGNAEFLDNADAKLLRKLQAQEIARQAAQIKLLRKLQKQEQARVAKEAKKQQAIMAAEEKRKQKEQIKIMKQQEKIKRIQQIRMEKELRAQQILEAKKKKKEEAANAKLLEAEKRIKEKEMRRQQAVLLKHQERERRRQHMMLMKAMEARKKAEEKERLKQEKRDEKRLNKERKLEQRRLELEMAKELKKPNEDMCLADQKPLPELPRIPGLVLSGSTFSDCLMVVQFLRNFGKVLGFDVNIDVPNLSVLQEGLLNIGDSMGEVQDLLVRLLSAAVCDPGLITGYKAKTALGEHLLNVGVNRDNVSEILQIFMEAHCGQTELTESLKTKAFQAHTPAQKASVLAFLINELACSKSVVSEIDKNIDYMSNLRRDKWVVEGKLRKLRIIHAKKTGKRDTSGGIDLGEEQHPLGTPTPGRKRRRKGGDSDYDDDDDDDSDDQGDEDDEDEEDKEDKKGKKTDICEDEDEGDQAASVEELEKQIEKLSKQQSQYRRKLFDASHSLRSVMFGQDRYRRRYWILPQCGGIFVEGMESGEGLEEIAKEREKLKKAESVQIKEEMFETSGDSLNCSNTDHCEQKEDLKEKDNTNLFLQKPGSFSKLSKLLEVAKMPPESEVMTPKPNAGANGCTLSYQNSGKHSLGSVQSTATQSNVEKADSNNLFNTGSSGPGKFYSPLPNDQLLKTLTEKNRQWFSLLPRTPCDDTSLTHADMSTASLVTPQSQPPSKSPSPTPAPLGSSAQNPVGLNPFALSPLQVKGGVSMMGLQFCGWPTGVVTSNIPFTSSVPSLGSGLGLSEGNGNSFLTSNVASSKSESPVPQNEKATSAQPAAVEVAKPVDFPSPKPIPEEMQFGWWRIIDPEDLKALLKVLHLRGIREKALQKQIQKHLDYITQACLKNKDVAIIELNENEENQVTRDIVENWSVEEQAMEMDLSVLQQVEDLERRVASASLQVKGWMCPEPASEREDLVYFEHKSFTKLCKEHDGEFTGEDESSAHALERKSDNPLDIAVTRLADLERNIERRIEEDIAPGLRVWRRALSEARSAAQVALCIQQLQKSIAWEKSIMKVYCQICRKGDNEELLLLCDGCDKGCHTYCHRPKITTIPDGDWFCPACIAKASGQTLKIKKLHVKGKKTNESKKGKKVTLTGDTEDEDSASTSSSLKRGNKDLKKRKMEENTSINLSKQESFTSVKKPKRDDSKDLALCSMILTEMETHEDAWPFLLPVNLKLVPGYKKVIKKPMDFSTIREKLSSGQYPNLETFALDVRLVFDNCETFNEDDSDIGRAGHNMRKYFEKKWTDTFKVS
Compound,Potency,"activity change, negative = inhibition"
O=C(COc1cccc2c1CCN(Cc1ccccc1)C2=O)NCc1ccco1,"inconclusive: 56.2 µM [inhibitor, partial curve]",–
CC(=O)Nc1nc2c(ccc3ccccc32)s1,"inconclusive: 89.1 µM [inhibitor, single point]",–
CCS(=O)(=O)c1c(Nc2cc(C)ccc2C)sc(C(=O)c2ccccc2)c1N,"inconclusive: 20 µM [inhibitor, full curve]",–
Cc1cc2nc(-c3ccc(SCc4ccc(C(=O)O)cc4)nc3)[nH]c2cc1C,active: 31.6 µM,–
COc1cccc(-c2nc(S(=O)(=O)c3ccccc3)c(N3CCC(C)CC3)o2)c1,"inconclusive: 12.6 µM [inhibitor, partial curve]",–
CC1(C)CC(=O)C(=Cc2cn(-c3ccccc3)nc2-c2ccc(Cl)cc2)C(=O)C1,"inconclusive: 89.1 µM [inhibitor, single point]",–
Cc1cccc(-c2cccc(NC(=O)C3CCCN(Cc4cccnc4)C3)c2)c1 (stereo not given),"inconclusive: 35.5 µM [inhibitor, partial curve]",–
COc1ccccc1NCC(=O)c1ccc(Cl)cc1,"inconclusive: 44.7 µM [inhibitor, partial curve]",–
Cn1ccnc1C(=O)c1cc(SCC(=O)NCc2ccccc2)nc2ccccc12,"inconclusive: 79.4 µM [inhibitor, single point]",–
Cn1c(=O)[nH]c(=O)c2c1nc(SCc1ccccc1Cl)n2CC(N)=O,–,inactive: 13%
Cc1cc(C)c(NC(=O)/C=C\C(=O)O)c(Cl)c1,–,inactive: 2.06%
Cc1cc(C)c2oc(-c3ccc(C)c(NC(=O)/C=C/c4ccco4)c3)nc2c1,"inconclusive: 89.1 µM [inhibitor, single point]",–
CCN1CCN(Cc2cccc(Oc3ccc(Cl)cc3)c2)CC1,active: 79.4 µM,–
C=CC[C@H]1Cc2c(cccc2[N+](=O)[O-])[C@H](CC=C)N1,active: 39.8 µM,–
C=C(C)CSc1nc2c(cc1C#N)CCC2,"inconclusive: 100 µM [inhibitor, single point]",–
COC(=O)CCC/C=C1/SCC(NC(=O)c2ccccc2)C1=O (stereo not given),"inconclusive: 89.1 µM [inhibitor, single point]",–
CC(=O)c1c(C)nc(-c2cccc([N+](=O)[O-])c2)n1O,"inconclusive: 79.4 µM [inhibitor, single point]",–
COc1cccc(C2C(C(=O)c3cccs3)=C(O)C(=O)N2c2cc(C)on2)c1 (stereo not given),"inconclusive: 89.1 µM [inhibitor, single point]",–
COc1ccc(Cn2c(CO)cnc2SCc2cccc(C)c2)cc1,"inconclusive: 39.8 µM [inhibitor, partial curve]",–
CCOC(=O)C1=C(N)N(c2ccc(C)cc2)C2=C(C(=O)CCC2)C1c1cccs1 (stereo not given),"inconclusive: 79.4 µM [inhibitor, single point]",–
CN(C)c1ccc(/C=N/N2C(=S)SC(C)(C)C2N(O)C(=O)Nc2ccc([N+](=O)[O-])cc2)cc1 (stereo not given),"inconclusive: 39.8 µM [inhibitor, partial curve]",–
COC(=O)C(=O)/C=C(\O)c1ccc(C)cc1,"inconclusive: 89.1 µM [inhibitor, single point]",–

Compound,Potency,"activity change, negative = inhibition"
CCC(C)(C)c1ccc(OCCCC[n+]2ccccc2)c(C(C)(C)CC)c1,–,inactive: -17.6%
COc1cc(OC)c(NC(=O)Cc2ccc(-n3c(C)nc4cccnc43)cc2)cc1Cl,"inconclusive: 89.1 µM [inhibitor, single point]",–
C#CCOCCOCCOCCNc1nc(N2CCN(C(=O)[C@H](CCC(=O)O)n3cc(C(N)CO)nn3)CC2)nc(N2CCN(C(=O)[C@H](CCCCN)n3cc(C(N)[C@H](C)CC)nn3)CC2)n1 (stereo not given in full),active: 14.1 µM,–
O=C(/C=C/c1ccc(Cl)c([N+](=O)[O-])c1)c1cccnc1,"inconclusive: 79.4 µM [inhibitor, partial curve]",–
COc1ccc(-c2csc3ncnc(N4CCN(c5ccccc5)CC4)c23)cc1,"inconclusive: 31.6 µM [inhibitor, full curve]",–
COc1ccc(C(=O)Nc2ccncc2)cc1[N+](=O)[O-],"inconclusive: 89.1 µM [inhibitor, partial curve]",–
COC(=O)c1ccc(OC)c(Cn2c(=O)n(-c3cccc(Cl)c3)c(=O)c3c4c(sc32)CN(C(C)=O)CC4)c1,–,inactive: -0.822%
COc1ccc(NC(=O)Nc2ccccc2C(=O)N2CCCC2)cc1,"inconclusive: 89.1 µM [inhibitor, single point]",–
CN(C)[C@@H]1C(=O)C(C(=O)NCN2CCCC2)=C(O)[C@@]2(O)C(=O)C3=C(O)c4c(O)cccc4[C@@](C)(O)C3CC12 (stereo not given in full),active: 1.26 µM,–
COC(=O)c1ccc(Cn2c(O)c(N=NC(N)=S)c3ccccc32)o1,"inconclusive: 12.6 µM [inhibitor, full curve, poor fit]",–
CCOC(=O)c1cc(-c2ccc(N3CCOCC3)cc2)nn1-c1ccccc1C(=O)O,active: 12.6 µM,–
COc1ccc2cc1Oc1ccc(cc1)CC1c3c(cc(OC)c4c3Oc3cc5c(cc3O4)CCNC5C2)CCN1C (stereo not given),active: 6.31 µM,–
CCN(Cc1ccccc1)S(=O)(=O)c1ccc(C(=O)N(CCCN(C)C)c2nc3ccc(F)cc3s2)cc1,active: 28.2 µM,–
CCOc1cc(S(=O)(=O)N2CC=C(c3ccc(F)cc3)CC2)c(OCC)cc1-n1cnnn1,"inconclusive: 89.1 µM [inhibitor, single point]",–
CNC(=S)N1CCN(c2nc(-c3cccc(OC)c3)cs2)CC1,"inconclusive: 89.1 µM [inhibitor, single point]",–
Cc1ccc(C(=O)NNC(=O)c2cc3cc4ccccc4nc3s2)cc1,"inconclusive: 79.4 µM [inhibitor, single point]",–
CC1(C)CC(=O)CC2(C1)NCC(c1ccccc1Cl)c1c2[nH]c2ccccc12 (stereo not given),"inconclusive: 50.1 µM [inhibitor, partial curve]",–
Clc1ccccc1/C=N/c1cc(-c2ccccc2)nn1-c1ccccc1,"inconclusive: 89.1 µM [inhibitor, single point]",–
CCN1CCN(S(=O)(=O)c2ccc(Cl)c(C(=O)Nc3cc(Cl)ccc3N3CCOCC3)c2)CC1,"inconclusive: 79.4 µM [inhibitor, single point]",–
COc1cc(C(=O)Nc2c(C(=O)O)[nH]c3ccc(C)cc23)cc(OC)c1OC,–,inactive: -21.4%
Cc1cc(C(=O)CSc2nc(N)cc(N)n2)c(C)n1-c1cccc(C(F)(F)F)c1,"inconclusive: 50.1 µM [inhibitor, partial curve]",–
Cc1cc(OCC(=O)N(Cc2ccc(N(C)C)cc2)C2CCS(=O)(=O)C2)cc(C)c1Cl (stereo not given),active: 10 µM,–

Compound,Potency,"activity change, negative = inhibition"
O=C1NC(=O)/C(=C/c2ccccc2Oc2ccc(Cl)cc2)S1,–,inactive: 1.76%
CCOc1ccc(C2NC(=O)C(C#N)=C(S)N2c2cccc(C)c2)cc1OC (stereo not given),–,inactive: -4.86%
COC(=O)CCCN1C(=O)c2cccc3cccc(c23)C1=O,active: 44.7 µM,–
CN1CCCN(Cc2cccc3ccccc23)CC1,active: 56.2 µM,–
CCOC(=O)c1c(C)[nH]c(C(=O)COC(=O)C2(C)CC2(Cl)Cl)c1C (stereo not given),"inconclusive: 3.55 µM [inhibitor, full curve, poor fit]",–
N#Cc1c(/N=C/c2ccco2)sc2c1CCCCC2,active: 35.5 µM,–
CCOC(=O)CN=C1CC(C)(C)CC2=C1Sc1ncnc(N(C)C)c1N2,"inconclusive: 89.1 µM [inhibitor, single point]",–
Cc1c(C(=O)N2CCCC2)oc2c1-c1nn(CC(=O)NC(C)c3ccccc3)cc1CC2 (stereo not given),"inconclusive: 70.8 µM [inhibitor, single point]",–
O=C(NC(=S)Nc1ccccc1C(=O)O)c1ccc(-c2ccc(Br)cc2)o1,active: 44.7 µM,–
CCC(C(=O)Nc1cc(OC)ccc1OC)n1c(C)c2cnn(-c3ccccc3)c(=O)c2c1C (stereo not given),"inconclusive: 31.6 µM [inhibitor, partial curve]",–
COCCCN1C(=O)C(O)=C(C(C)=O)C1c1ccccn1 (stereo not given),–,inactive: -34.2%
Cc1ccc(S(=O)(=O)NCCc2nnc3ccc(SCc4ccc(F)cc4)nn23)cc1,"inconclusive: 79.4 µM [inhibitor, single point]",–
Cc1ccc2c(c1)[C@@H]1CN(C)CC[C@@H]1N2S(=O)(=O)c1ccc(F)cc1,"inconclusive: 79.4 µM [inhibitor, single point]",–
CCOC(=O)c1c(N2C(=O)C=CC2=O)sc(C)c1C,"inconclusive: 89.1 µM [inhibitor, single point]",–
COCC(C)n1c(C)cc(C(=O)CSc2nnc(Nc3ccccc3F)s2)c1C (stereo not given),"inconclusive: 44.7 µM [inhibitor, partial curve]",–
COc1ccc(CC(=O)NCC(c2cccs2)S(=O)(=O)c2ccc(Cl)cc2)cc1 (stereo not given),"inconclusive: 2.51 µM [inhibitor, partial curve, poor fit]",–
O=C1C(C2=NC(c3ccccn3)C3C(=O)N(c4ccc(Cl)cc4Cl)C(=O)C23)=C(O)c2ccccc21 (stereo not given),–,inactive: -26.2%
COc1ccc(N2CCN(c3nc(-c4cccs4)nc4ccccc34)CC2)cc1,"inconclusive: 25.1 µM [inhibitor, full curve]",–
COc1cc2c(cc1OC)C1O[C@](CCCCN3C(=O)c4ccccc4C3=O)(C2)OC2=C1C(=O)CC(C)(C)C2,"inconclusive: 14.1 µM [inhibitor, single point]",–
Cc1ccc(Oc2cc(NN3CCCCC3)c([N+](=O)[O-])cc2[N+](=O)[O-])c(Cl)c1,"inconclusive: 7.94 µM [inhibitor, full curve]",–
O=C(NC(=S)Nc1ccc(N2CCCC2)cc1)c1ccc(F)cc1,active: 11.2 µM,–
